The DeepSol protein solubility set

Assay: soluble on expression in E. coli; label from the status in PepcDB or PDB records

Sequence	soluble on expression in E. coli
MSLKRAFILVLDSFGIGATADAQAFGDVGSDTLGHIADQCAQGLADNAERKGALQLPNLSKLGLAMAHKESTGRFAPGLDERADIIGAYAHAAELSSGKDTPSGHWEIAGVPVLFEWGYFSDKQNSFPKELTDRILARAGLDGFLGNCHASGTQVLDDLGEEHMRTGKPIFYTSADSVFQIACHEETFGLDRLLELCQIAREELADYNIGRVIARPFVGPGKGQFARTGNRRDLSVEPPSATVLQKLVEEKQGRVVSIGKIADIYAYCGITDKVKATGIPDLFEATLEQIKQAGDNTIVFTNFVDFDSAYGHRRDVAGYAAALEYFDKRLPEVLELMQEDDILILTADHGCDPTWPGTDHTREHIPVLVYGKKVAPGSLGRRDTFADIGQTLASYFGTSPMDYGKNFLEGHHHHHH	not soluble
MSLSSTVSTLYGEVEPSLLEIAKQIKLLICDVDGVFSDGLIYMGNQGEELKTFHTRDGYGVKALMNAGIEIAIITGRRSQIVENRMKALGISLIYQGQDDKVQAYYDICQKLAIAPEQTGYIGDDLIDWPVMEKVALRVCVADGHPLLAQRANYVTHIKGGHGAVREVCDLILQARNELDVHKGLSLEGHHHHHH	soluble
